System: BLM-induced pulmonary fibrosis
Assay: BLM-induced established pulmonary fibrosis in mice, treatment d14-d21
Format: in vivo
Conditions: 1.0 U/kg BLM IT, protein 7.5 mg/kg/d IP daily for 7 days starting d14
Procedure: FIGS. 9A-9O. M9 peptide and protein mitigated BLM-induced pulmonary fibrosis. Mice exposed to saline or 1.0 U/kg BLM by intratracheal instillation were treated with or without M9 peptide HGHVDPVKTPKI (SEQ ID NO: 4) (10 mg/kg/d) and M9 protein (SEQ ID NO: 1) 7.5 mg/kg/d) via IP injection daily for 7 days starting d14 after BLM injury. FIG. 9A: Representative micro-CT images at d21 after BLM exposure. FIG. 9B: Lung volumes were measured by quantitative-CT renditions. Lung compliance (FIG. 9C) and elastance (FIG. 9D) were measured using a flexiVent system. Lung weights (FIG. 9E) and body weights (FIG. 9F) are presented as bar graphs. […] Statistical significance (*P<0.05, **P<0.01, ***P<0.001 and ****P<0.0001) was assessed by one-way ANOVA with Turkey's multiple comparison. fLfs isolated from IPF lungs treated with PBS or recombinant full length M9 (rM9^FL) protein (2 μg/ml) for 48 h in vitro were tested for pro-fibrogenic proteins (FIG. 9L). fLfs (from IPF lungs) treated with PBS or extracellular domain of rM9^FL protein (rM9^ECD) as in FIG. 9L were tested for pro-fibrogenic proteins (FIG. 9N). […]
FIGS. 10A-10K. […] FIG. 10B: Lung volumes were measured by quantitative-CT renditions. Lung compliance (FIG. 10C) and elastance (FIG. 10D) were measured using a flexiVent system. […]
FIGS. 11A-11K. […] FIG. 11B: Lung volumes were measured by quantitative-CT renditions. […]

B1: U5a^ECD: recombinant extracellular domain of U5a (SEQ ID NO: 103) (protein, listed as Homo sapiens)
chain: MAVRPGLWPALLGIVLAAWLRGSGAQQSATVANPVPGANPDLLPHFLVEPEDVYIVKNKPVLLVCKAVPATQIFFKCNGEWVRQVDHVIERSTDGSSGLPTMEVRINVSRQQVEKVFGLEEYWCQCVAWSSSGTTKSQKAYIRIAYLRKNFEQEPLAKEVSLEQGIVLPCRPPEGIPPAEVEWLRNEDLVDPSLDPNVYITREHSLVVRQAALADTANYTCVAKNIVARRRSASAAVIVYVDGSWSPWSKWSACGLDCTHWRSRECSDPAPRNGGEECQGTDLDTRNCTSDLCVHTASGPEDVALY
- BLM-induced pulmonary fibrosis (overall): mitigated
